In PubChem BioAssay AID463173 (ICCB-Longwood Screening Facility, Harvard Medical School, 2010):
Among all 52,000 compounds or so, about 4,300 (8.3%) were called active. Cut-off read from the data, not from the text of the source: active = survival mostly below about 52% (no sharp cut-off); inactive = mostly above about 56%. The list shows a part of the results.

system: DeltatarO mutant; assay: growth inhibition of S. aureus wild type versus tarO mutant, primary screen, teichoic acid synthesis inhibitors, RN4220, OD600 (AID 463173); settings: OD600, 18 h, active compounds read low, screened at 18.75 µg/mL (by protocol)

| SMILES | survival |
| --- | --- |
| C#CCn1c(=O)n(-c2cccc(Cl)c2C)c(=O)c2c3c(sc21)CN(C(C)=O)CC3 | inactive: 73% |
| Cc1ccc(C)c(N2CCN(CCCNC(=O)c3cnn(-c4ccc(F)cc4)c3C3CCN(C(=O)OC(C)(C)C)CC3)CC2)c1 | inactive: 76% |
| CC(C)Oc1ccccc1NC(=O)CSc1nccn1C | inactive: 60% |
| OCCCn1c(-c2ccc(F)cc2)csc1=Nc1ccc(F)cc1 | active: 39% |
| Cc1ccc(-n2c(=O)c3c(c4cc(C)ccc4n3C)n(CC(=O)c3ccc(Cl)cc3)c2=O)cc1 | inactive: 116% |
| O=C(O)CSc1nc2ccc(NC(=O)COc3ccc(Cl)cc3)cc2s1 | inactive: 83% |
| O=C(Cn1c(=O)nc(-c2ccccc2)c2ccccc21)N1CCN(c2ccc(F)cc2)CC1 | inactive: 78% |
| COc1cc(OC)c(NC2=C(c3ccc(C(F)(F)F)cc3)C(=O)c3ccccc32)cc1Cl | inactive: 56% |
| O=C(CS(=O)(=O)c1cccc2nsnc12)NCc1ccccc1 | inactive: 72% |
| Cc1noc(/C=C/c2ccccc2F)c1S(=O)(=O)N1CCC(C(=O)NCC(C)c2ccccc2)CC1 (configuration not stated) | inactive: 95% |
| COc1cc(NC(=O)C(Cc2ccccc2)NS(=O)(=O)c2cccs2)cc(OC)c1 (configuration not stated) | inactive: 102% |
| CCOC(=O)c1c(NC(=O)c2cc(=O)c3cc(C)cc(C)c3o2)sc(C)c1C | active: 48% |
| Cc1ccc(-c2nn(CC(=O)NCc3ccccc3)c3c2cnc2ccc(F)cc23)cc1C | inactive: 75% |
| O=C(CSc1nccn1C1CCCC1)Nc1cc(C(F)(F)F)ccc1Cl | inactive: 78% |
| COc1ccc(OC)c(-n2c3c(cc(-c4nc(-c5ccc(Cl)cc5)cs4)c2=O)C(=O)CC(C)(C)C3)c1 | inactive: 75% |
| O=C(c1ccc2c(c1)N(Cc1ccccc1)C(=O)c1ccccc1S2(=O)=O)N1CCc2ccccc21 | inactive: 81% |
| Cc1c(NC(=O)C(C)(C)Oc2ccc(Cl)cc2)cccc1-c1nc2ccccc2o1 | active: 2% |
| Cc1ccc(NC(=O)c2ccc(CN3CC(=O)N4CCCCC4C3=O)cc2)c(C)c1 (configuration not stated) | inactive: 77% |
| Cc1ccc2c(=O)c(C(=O)c3ccc(F)cc3)cn(CC(=O)Nc3ccc4c(c3)OCCO4)c2n1 | inactive: 77% |
| COC(=O)c1ccccc1NC(=O)c1nc(-c2ccc(Cl)cc2)n2c1CCCCC2 | inactive: 113% |
| CCOc1cccc(C(=O)Nc2cc(C)c(O)c(-c3nc4ncccc4o3)c2)c1 | inactive: 64% |
| COc1cccc(Cc2nc3ccccc3nc2SCC(=O)N2CCCc3ccccc32)c1 | inactive: 131% |

| SMILES | survival |
| --- | --- |
| CC(=O)c1cccc(NS(=O)(=O)c2cc3c(cc2C)n(C)c(=O)c(=O)n3C)c1 | inactive: 83% |
| CC1CCCN(CC(=O)Nc2ccc(C(=O)O)cc2)C1 (configuration not stated) | inactive: 89% |
| Cc1nc(Nc2ccc(S(N)(=O)=O)cc2)oc1C | inactive: 75% |
| Cc1cccc(NC(=O)C(=O)NCC(c2ccc3c(c2)OCO3)N2CCN(c3ccccc3)CC2)c1 (configuration not stated) | inactive: 99% |
| O=C(Nc1sc2c(c1C(=O)Nc1ccccc1)CCC2)c1ccc(Br)cc1 | inactive: 159% |
| Cc1cc(F)ccc1S(=O)(=O)Nc1ccc(O)c(Sc2ncn[nH]2)c1 | inactive: 111% |
| COc1ccccc1CNC(=O)CSc1ccc(-c2sc(-c3ccccc3)nc2C)nn1 | inactive: 27% |
| CN(C(=O)CSc1nnc(COc2ccccc2)o1)c1ccccc1 | inactive: 97% |
| O=S(=O)(c1ccc(Cl)cc1)c1nc(-c2ccco2)oc1SCc1ccccc1F | inactive: 62% |
| c1ccc(OCCSC2=NCCN2)cc1 | inactive: 72% |
| N#Cc1nc(-c2ccc(COc3ccccc3)o2)oc1N1CCN(c2ccccc2)CC1 | inactive: 60% |
| CCc1ccc(CNC(=O)c2cnc3sc(N4CCOCC4)nn3c2=O)cc1 | inactive: 78% |
| Cc1cccc(OC(=O)c2cc(-c3ccc(C)c(C)c3)on2)c1 | active: -2% |
| O=C1CCSC2(C(=O)N(Cc3ccc(F)cc3)c3ccccc32)N1c1ccc(Cl)cc1 (configuration not stated) | inactive: 101% |
| COc1ccc(Cl)cc1NC(=O)N1CCN(Cc2cc(=O)n3nc(-c4ccccc4)sc3n2)CC1 | inactive: 94% |
| O=C(Nc1cccn(Cc2ccccc2)c1=O)NC1CCCCC1 | inactive: 82% |
| COc1ccccc1CNC(=O)C(C)n1c(=O)cc(-c2ccccc2)c2c(C)nn(C)c21 (configuration not stated) | inactive: 84% |
| CCOC(=O)Cn1c(=O)oc2cc(S(=O)(=O)N3CCN(c4cccc(C)c4)C(C)C3)ccc21 (configuration not stated) | inactive: 71% |
| CC(=O)Nc1ccc2nc3c(=O)n(C)c(=O)n(C)c3nc2c1C | inactive: 80% |
| Cc1[nH]n(-c2nc(-c3ccccc3)cs2)c(=O)c1N=Nc1ccc(O)cc1 | inactive: 54% |
| CCSc1nsc(NC(=O)Nc2cccc(OC)c2)n1 | inactive: 96% |
| CC(C)c1nn2c(=O)cc(COC(=O)c3cccs3)nc2s1 | inactive: 75% |

| SMILES | survival |
| --- | --- |
| CCCCNC(=O)c1c(N)no[n+]1[O-] | inactive: 83% |
| COc1ccc(C)cc1NS(=O)(=O)c1c(C(=O)N2CCC(C)CC2)c(C)n(C)c1C | inactive: 89% |
| COC(=O)c1ccc(NC(=O)CCCC(=O)OCC(=O)c2ccc(Cl)cc2)cc1 | inactive: 92% |
| Cc1ccc(-c2noc(-c3ccc(N4CCN(C)CC4)c([N+](=O)[O-])c3)n2)cc1 | inactive: 85% |
| O=C(COc1ccccc1)NCC(c1ccc(Cl)cc1)N1CCOCC1 (configuration not stated) | inactive: 68% |
| Cc1ccc(NC(=O)c2oc3ccc4c(c3c2C)C(=O)CC(C)(C)O4)c(C)c1 | inactive: 83% |
| COc1ccc(CCNC(=O)c2cccc(Nc3nc4ccccc4nc3-n3nc(C)cc3C)c2)cc1OC | inactive: 91% |
| O=C(CSc1n[nH]c(-c2ccc(F)cc2)n1)NCc1ccccc1Cl | inactive: 73% |
| COc1ccc(C2C=C(c3ccc(Cl)cc3)Nc3nc(-c4ccc(Cl)cc4)nn32)cc1 (configuration not stated) | active: 38% |
| CCOc1c(Br)cc(C2CC(=O)Nc3cc4c(cc32)OCO4)cc1OC (configuration not stated) | inactive: 127% |
| CCCS(=O)(=O)Nc1cccc(-c2cn3ccc(C)cc3n2)c1 | inactive: 62% |
| CCOc1ccc2c(c1)c(=O)c(S(=O)(=O)c1ccc(F)cc1)cn2CC(=O)Nc1ccccc1C | inactive: 96% |
| NC1=NC(c2cccc(Cl)c2)n2c(nc3ccccc32)N1 (configuration not stated) | inactive: 79% |
| CCOC(=O)c1cnn(-c2ccc(C(=O)Nc3ccc(C(C)=O)cc3)cc2)c1N | inactive: 102% |
| Cc1ccc(-c2csc(NC3OC(=O)c4c#cccc43)n2)cc1 (configuration not stated) | inactive: 94% |
| COc1cc2cc(CNc3ccccc3)c(=O)n(CC(=O)Nc3ccc(C)c(Cl)c3)c2cc1OC | inactive: 78% |
| CCOC(=O)c1c(S(=O)(=O)N2CCCC(C(=O)NCc3cccc(C)c3)C2)c(C)n(C)c1C (configuration not stated) | inactive: 91% |
| COCCN(Cc1ccco1)C(=O)c1cc2c(=O)[nH]c3ccc(C)cc3c2s1 | inactive: 53% |
| CN(Cc1ccccc1)S(=O)(=O)c1ccc(NC(=O)c2cc(=O)c3ccccc3o2)cc1 | inactive: 65% |
| CC(C)(C)NC(=O)CSc1nnc(Cc2ccc3c(c2)OCO3)n1C1CCCCC1 | inactive: 90% |
| CCc1cccc(C)c1NC(=O)CN1C(=O)C2(SCC(=O)N2c2cccc(F)c2)c2ccccc21 (configuration not stated) | inactive: 107% |
| Cc1ccccc1OCC(=O)NCC(c1ccc(Cl)cc1)N1CCCCC1 (configuration not stated) | inactive: 66% |

| SMILES | survival |
| --- | --- |
| Cn1ncc2c(N3CCN(c4ccccc4F)CC3)ncnc21 | inactive: 99% |
| COc1ccc(C)cc1NC(=O)Nc1cccc(OCc2cc(=O)n3ccc(C)cc3n2)c1 | inactive: 94% |
| CCOc1ccc(/C=C/c2nc(C#N)c(NC(C)c3ccccc3)o2)cc1 (configuration not stated) | inactive: 69% |
| COc1ccc(C(=O)CC2(O)C(=O)N(Cc3cccc(C(F)(F)F)c3)c3ccccc32)cc1 (configuration not stated) | active: 33% |
| CC(=O)N1CCc2cc(Br)cc(S(=O)(=O)N3CCC(C(=O)Nc4ccc(C(C)C)cc4)CC3)c21 | inactive: 152% |
| COc1cccc(C(=O)N2c3ncnn3C3(CCCCC3)[C@@H]3CCCC[C@@H]32)c1 | inactive: 89% |
| COc1ccc(N2CCN(S(=O)(=O)c3ccc(-c4ccno4)cc3OC)CC2)cc1 | active: 6% |
| CCCCc1ccc(NC(=O)c2ccc3c(c2)CCN3S(=O)(=O)CC)cc1 | active: 38% |
| COc1ccc(CNC(=O)C(C)n2nc(C)c3c(C)n(-c4ccccc4)nc3c2=O)c(OC)c1 (configuration not stated) | inactive: 144% |
| CC(C(=O)Nc1ccc(OC(F)(F)F)cc1)N1Cc2ccccc2C1=O (configuration not stated) | active: 20% |
| Cc1oc(-c2ccccc2F)nc1CN1CCC(C(=O)NCCc2ccccc2)CC1 | inactive: 89% |
| CCCCn1cc(S(=O)(=O)c2cc(C)ccc2C)c(=O)c2cc(F)c(F)cc21 | inactive: 91% |
| CCOC(=O)c1cccc(NC(=O)c2oc3c(c2C)-c2nn(CC)cc2CC3)c1 | inactive: 75% |
| Cc1c(Cl)cccc1-n1ncc(C(=O)NC2CCCCC2)c1C1CCN(C(=O)OC(C)(C)C)CC1 | inactive: 94% |
| COc1ccc(Br)cc1[C@@H]1Nc2ccc(C(=O)O)cc2[C@@H]2C=CC[C@@H]21 | active: 36% |
| CCOc1ccc(CCNC(=O)CSc2nnnn2-c2ccccc2)cc1OCC | inactive: 131% |
| Cc1ccc(CNC(=O)Cc2csc3ccccc23)cc1 | inactive: 93% |
| Cc1cccc(N2CCN(S(=O)(=O)c3cc(C(=O)Nc4ccc(Oc5ccccc5)cc4)ccc3F)CC2)c1C | inactive: 75% |
| COc1ccc(OC)c(Nc2sc(C(=O)c3ccccc3)c(N)c2S(=O)(=O)c2ccccc2)c1 | inactive: 76% |
| Cc1ccccc1NC(=O)Cn1c(=O)n(CCc2ccccc2)c(=O)c2ccccc21 | inactive: 113% |
| Cc1cccc(Nc2c(-c3ccsc3)nc3nc(C)cc(C)n23)c1 | inactive: 130% |
